This is one part of the list. Most values come without repeats; read them as rough.
How the values were obtained:
Test in all cases: cell count relative to DMSO control; melanoma cells; higher = more viable cells
Details in all cases: library dose: low library concentration; 72 h
WM115 = test system: WM115
WM1716 = test system: WM1716
WM1745 = test system: WM1745
WM3526 = test system: WM3526
WM3619 = test system: WM3619
WM451Lu = test system: WM451Lu
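Further: cell number obtained by counting DAPI-stained nuclei in high-throughput microscope images with image analysis software, screen run in 1,536-well plates.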

SMILES	cell count (WM115)	cell count (WM1716)	cell count (WM1745)	cell count (WM3526)	cell count (WM3619)	cell count (WM451Lu)
C[C@]1(O)C[C@@H](c2nc(-c3ccc4ccc(-c5ccccc5)nc4c3)c3c(N)nccn32)C1 + CC(C)(C)c1cnc(CSc2cnc(NC(=O)C3CCNCC3)s2)o1 [SNS-032] (first compound 0.4 µM, partner dose 0.01 µM)	97.9%	94.6%	72%	84.3%	92.1%	87.6%
Cn1cnc2c(F)c(Nc3ccc(Br)cc3Cl)c(C(=O)NOCCO)cc21 [selumetinib] + C#Cc1cccc(Nc2ncnc3cc(OCCOC)c(OCCOC)cc23)c1 [erlotinib] (first compound 0.015 µM, partner dose 0.8 µM)	82.5%	116%	82%	54.4%	67.1%	124%
C[C@]1(O)C[C@@H](c2nc(-c3ccc4ccc(-c5ccccc5)nc4c3)c3c(N)nccn32)C1 + CNC(=O)c1cc(Oc2ccc(NC(=O)Nc3ccc(Cl)c(C(F)(F)F)c3)cc2)ccn1 [sorafenib] (first compound 0.4 µM, partner dose 0.4 µM)	103%	107%	70.8%	94.1%	91%	97.8%
Cn1cnc2c(F)c(Nc3ccc(Br)cc3Cl)c(C(=O)NOCCO)cc21 [selumetinib] + N#Cc1c(O)c2c(-c3ccc(-c4ccccc4O)cc3)csc2[nH]c1=O [A769662] (first compound 0.015 µM, partner dose 2 µM)	92.2%	109%	96.9%	81.4%	85.7%	106%
COc1cc([C@@H]2c3cc4c(cc3[C@@H](O[C@@H]3O[C@@H]5CO[C@@H](C)O[C@H]5[C@H](O)[C@H]3O)[C@H]3COC(=O)[C@H]23)OCO4)cc(OC)c1O [etoposide] + CCc1ccc(CCOc2ccc(CC3SC(=O)NC3=O)cc2)nc1 [pioglitazone] (first compound 0.02 µM, partner dose 2 µM)	94.7%	94.7%	91.7%	85.4%	84.5%	93%
CCN(CC)CCNC(=O)c1c(C)[nH]c(/C=C2\C(=O)Nc3ccc(F)cc32)c1C [sunitinib] + C[C@]1(c2nc3c(C(N)=O)cccc3[nH]2)CCCN1 [Veliparib] (first compound 0.4 µM, partner dose 1.4 µM)	90.8%	126%	83.3%	92.1%	132%	113%
Cn1cnc2c(F)c(Nc3ccc(Br)cc3Cl)c(C(=O)NOCCO)cc21 [selumetinib] + COc1ccc2c(c1)CCC1C2CCC2(C)C(NCCCCCCN3C(=O)C=CC3=O)CCC12 [U73122] (first compound 0.015 µM, partner dose 0.4 µM)	113%	97.3%	82.7%	75.5%	83.5%	93%
Cn1cnc2c(F)c(Nc3ccc(Br)cc3Cl)c(C(=O)NOCCO)cc21 [selumetinib] + CC1(C)NC(=O)N(c2ccc([N+](=O)[O-])c(C(F)(F)F)c2)C1=O [nilutamide] (first compound 0.015 µM, partner dose 1 µM)	110%	103%	94.6%	68.9%	83.5%	107%
C[C@]1(O)C[C@@H](c2nc(-c3ccc4ccc(-c5ccccc5)nc4c3)c3c(N)nccn32)C1 + Nc1cccc2c1CN(C1CCC(=O)NC1=O)C2=O [lenalidomide] (first compound 0.4 µM, partner dose 1 µM)	106%	80.6%	80%	93.2%	87.4%	103%
COc1cc([C@@H]2c3cc4c(cc3[C@@H](O[C@@H]3O[C@@H]5CO[C@@H](C)O[C@H]5[C@H](O)[C@H]3O)[C@H]3COC(=O)[C@H]23)OCO4)cc(OC)c1O [etoposide] + Cn1cnc2c(F)c(Nc3ccc(Br)cc3Cl)c(C(=O)NOCCO)cc21 [selumetinib] (first compound 0.02 µM, partner dose 0.015 µM)	90%	106%	85.1%	88.6%	81%	99.1%
CCN(CC)CCNC(=O)c1c(C)[nH]c(/C=C2\C(=O)Nc3ccc(F)cc32)c1C [sunitinib] + O=C(O)C(=O)Nc1sc2c(c1C(=O)O)CCNC2 [TCS401] (first compound 0.4 µM, partner dose 1.66667 µM)	95.4%	144%	77%	113%	93.2%	99.6%
C[C@]1(O)C[C@@H](c2nc(-c3ccc4ccc(-c5ccccc5)nc4c3)c3c(N)nccn32)C1 + O=C(O)[C@@H]1[O][Sb](=[O])([O][Sb]2(=[O])[O][C@H]([C@H](O)CO)[C@H](O)[C@H](C(=O)O)[O]2)[O][C@H]([C@H](O)CO)[C@@H]1O [stibogluconate] (first compound 0.4 µM, partner dose 2 µM)	133%	94.7%	74.2%	81.4%	85%	90.6%

Reference: the supplement of paper PMC4604168 (melanoma cell lines)
